The supplement of paper PMC4967469

Experiments:
Test in all cases: Viability of human cancer cell lines after 72 h of drug (GDSC screen)
SGC0946 = compound: CC(C)N(CCCNC(=O)Nc1ccc(C(C)(C)C)cc1)C[C@H]1O[C@@H](n2cc(Br)c3c(N)ncnc32)[C@H](O)[C@@H]1O [SGC0946]; conditions: top dose 0.5 µM; top dose inferred
Description: (§1)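 Human cancer cell lines in 384-well plates, medium with 10% serum, drug for 72 h over a 256-fold dose range (nine 2-fold or five 4-fold steps up to the top dose). Adherent lines were fixed and stained with the nucleic acid dye Syto60, suspension lines read with resazurin; signal relative to control wells, capped at 0 and 100%. One two-parameter sigmoid per drug and line, fitted in a mixed model over all curves with the slope shared within a line.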

Bryostatin 1 = compound: CCC/C=C/C=C/C(=O)O[C@H]1/C(=C/C(=O)OC)C[C@H]2C[C@H]([C@@H](C)O)OC(=O)C[C@H](O)C[C@@H]3C[C@H](OC(C)=O)C(C)(C)[C@](O)(C[C@@H]4C/C(=C/C(=O)OC)C[C@H](/C=C/C(C)(C)[C@]1(O)O2)O4)O3 [Bryostatin 1]; conditions: top dose 0.008 µM; top dose inferred
Description: as §1

GW-2580 = compound: COc1ccc(COc2ccc(Cc3cnc(N)nc3N)cc2OC)cc1 [GW-2580]; conditions: top dose 20 µM; top dose inferred
Description: as §1

VX-680 = compound: Cc1cc(Nc2cc(N3CCN(C)CC3)nc(Sc3ccc(NC(=O)C4CC4)cc3)n2)n[nH]1 [VX-680]; conditions: top dose 2 µM
Description: as §1

Lenalidomide = compound: Nc1cccc2c1CN(C1CCC(=O)NC1=O)C2=O [Lenalidomide]; conditions: top dose 5 µM; top dose inferred
Description: as §1

Cell Line	AUC (SGC0946)	IC50 (SGC0946) [nM]	AUC (Bryostatin 1)	IC50 (Bryostatin 1) [nM]	AUC (GW-2580)	IC50 (GW-2580) [nM]	AUC (VX-680)	IC50 (VX-680) [nM]	AUC (Lenalidomide)	IC50 (Lenalidomide) [nM]
TUR (B-cell lymphoma, suspension)	0.978	> 500	0.979	> 8	0.974	> 20000	0.988	> 2000	0.98	> 5000
NCI-H847 (small cell lung carcinoma, adherent)	0.98	> 500	0.992	> 8	0.987	> 20000	0.425	81.1	0.993	> 5000
NCI-H1838 (lung adenocarcinoma, adherent)	0.985	> 500	0.987	> 8	0.987	> 20000	0.986	> 2000	0.978	> 5000
KOPN-8 (B-cell leukaemia, suspension)	0.989	> 500	0.947	> 8	0.99	> 20000	0.364	56	0.99	> 5000
BE2-M17 (neuroblastoma, adherent)	0.985	> 500	0.987	> 8	0.981	> 20000	0.9	> 2000	0.987	> 5000
HL-60 (acute myeloid leukaemia, suspension)	0.989	> 500	0.971	> 8	0.987	> 20000	0.622	261	0.962	> 5000
RPMI-8866 (chronic myeloid leukaemia, suspension)	0.987	> 500	0.984	> 8	0.98	> 20000	0.988	> 2000	0.898	> 5000
no-11 (glioma, adherent)	0.98	> 500	0.956	> 8	0.972	> 20000	0.939	> 2000	0.977	> 5000
SU-DHL-16 (B-cell lymphoma, suspension)	0.996	> 500	0.982	> 8	0.996	> 20000	0.435	86.9	0.993	> 5000
RL (B-cell lymphoma, suspension)	0.976	> 500	0.987	> 8	0.982	> 20000	0.99	> 2000	0.99	> 5000
LAN-6 (neuroblastoma, adherent)	0.983	> 500	0.984	> 8	0.973	> 20000	0.929	> 2000	0.985	> 5000
SUP-T1 (T-cell lymphoblastic leukaemia, suspension)	0.989	> 500	0.988	> 8	0.979	> 20000	0.99	> 2000	0.96	> 5000
VA-ES-BJ (soft tissue, adherent)	0.984	> 500	0.937	> 8	0.984	> 20000	0.579	209	0.983	> 5000
CA46 (Burkitt lymphoma, suspension)	0.979	> 500	0.985	> 8	0.983	> 20000	0.957	> 2000	0.984	> 5000
LU-165 (small cell lung carcinoma, suspension)	0.986	> 500	0.987	> 8	0.986	> 20000	0.986	> 2000	0.986	> 5000
ALL-PO (lymphoblastic leukaemia, suspension)	0.981	> 500	0.98	> 8	0.929	> 20000	0.587	219	0.871	> 5000
CHP-126 (neuroblastoma, suspension)	0.968	> 500	0.985	> 8	0.987	> 20000	0.94	> 2000	0.984	> 5000
RKO (large intestine, adherent)	0.987	> 500	0.971	> 8	0.988	> 20000	0.569	190	0.987	> 5000
NCI-H1869 (lung squamous cell carcinoma, adherent)	0.983	> 500	0.985	> 8	0.976	> 20000	0.976	> 2000	0.982	> 5000
no-10 (glioma, adherent)	0.98	> 500	0.94	> 8	0.979	> 20000	0.962	> 2000	0.981	> 5000

Lines with a small IC50 respond at low doses; where the fit passes the top or lowest dose, that dose stands as a limit. AUC sums up the same curve from the lowest dose to the 256-fold higher top dose: 1 means no effect, lower means more sensitive. For some assays here: Where the top dose is marked as inferred, it is not printed in the source and was worked back from the curve model.
